The whole screen tested about 420,000 compounds, of which about 50,000 (12%) were called active. This list was built around the results that the source calls inconclusive (neither active nor inactive); the mix of calls is not that of the screen. The call rests on the fitted dose curve; in most records, active means well fitted inhibition curve with a large enough effect; inconclusive means small, poorly fitted or top-dose-only effect; inactive means flat fitted curve, though single readings scatter. Potencies of inconclusive entries are left out as doubtful fits.
Experiment: qHTS for Inhibitors of human tyrosyl-DNA phosphodiesterase 1 (TDP1): qHTS in cells in presence of CPT; further: nearly all actives have a fitted effect of over 55% in size
Conditions: chicken DT40 Tdp1-/-;hTDP1 cells + 20 nM CPT, ATP luminescence, 48 h; activity change, negative = growth inhibition: at 46.2 µM (top of the series)
Summary of the method: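 Chicken DT40 Tdp1-/- cells stably complemented with human TDP1 were seeded at 400 cells/well in medium containing 20 nM camptothecin, exposed to pin-transferred compounds, and grown at 37 °C for at least 48 hr. Viability was read as ATP luminescence.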
On the % scale 0 is the no-effect control and ±100 the full control effect; potency means the concentration at half of the fitted maximal effect; tags describe the fitted curve by direction and shape.

Row | Structure (SMILES) | activity change, negative = growth inhibition | Potency
1 | Cc1cc(C)cc(NC(=O)CSc2nc(=O)n(CCCN3CCOCC3)c3c2CCCC3)c1 | inactive: -26% | –
2 | COc1ccccc1CNc1nc(-c2ccco2)nn1S(=O)(=O)c1ccc2ccccc2c1 | – | inconclusive [inhibitor, single point]
3 | COc1cccc(Cn2cnc3c(NS(=O)(=O)c4cc(Cl)ccc4Cl)c(C)c(C)cc32)c1 | – | inconclusive [inhibitor, single point]
4 | O=[N+]([O-])c1ccc(-c2cn3ccccc3n2)cc1 | – | inconclusive [inhibitor, partial curve]
5 | CCCCc1ccc(NC(=S)NCCc2ccc(F)cc2)cc1 | – | inconclusive [inhibitor, single point]
6 | O=C(c1cc2nc(-c3ccccc3)cc(-c3ccccc3)n2n1)N1CCCC1 | – | inconclusive [inhibitor, single point]
7 | CC1(C)C(=Cc2ccccc2)C(=O)c2ccccc21 | – | inconclusive [inhibitor, single point]
8 | O=C(/C=C/c1ccccc1)N1CCN(CCN2C(=O)c3cccc4cccc(c34)C2=O)CC1 | – | active: 7.31 µM
9 | CCC1=Nc2cc(C(=O)NCCCOC)ccc2Sc2ccc(Br)cc21 | – | active: 1.3 µM
10 | COC(=O)c1c(-c2ccsc2)oc2ccc(-c3cc(OC)c(OC)c(OC)c3)cc12 | – | active: 18.4 µM
11 | COc1ccc2nc(SCC(=O)NC3CCCC3)c(C)cc2c1 | – | active: 16.4 µM
12 | Cc1ccccc1C(=O)Nc1sc2c(c1C(=O)NCc1ccco1)CCC(C(C)(C)C)C2 (configuration not stated) | – | inconclusive [inhibitor, single point]
13 | CN1CCN(C(=O)c2cn(C)c3ccc(S(=O)(=O)N(C)C4CCCCC4)cc3c2=O)CC1 | – | inconclusive [inhibitor, partial curve, poor fit]
14 | Cc1nnc(NC(=O)CSc2nnc(-c3ccco3)n2C(C)C)s1 | inactive: 7.12% | –
15 | NC(=O)c1ncn([C@@H]2O[C@H](CNCc3cc(Br)ccc3OCc3ccccc3)[C@@H](O)[C@H]2O)n1 | inactive: -37% | –
16 | CNC(=O)C1CCC(Cn2c(=O)c3sccc3n(CC(=O)NCc3ccccc3)c2=O)CC1 (configuration not stated) | – | inconclusive [inhibitor, single point]
17 | COCCCNC(=O)c1oc2c(c1C)-c1nn(Cc3ccccc3Cl)cc1CC2 | – | inconclusive [inhibitor, single point]
18 | COCCN1CCCC(CNCc2cn(C)nc2-c2ccc(Oc3ccccc3)cc2)C1 (configuration not stated) | – | active: 18.4 µM
19 | CC1CCCC(C)N1C(=O)/C=C/c1ccc(S(=O)(=O)N2CCOCC2)cc1 (configuration not stated) | – | inconclusive [inhibitor, single point]
20 | CC(C)C(C(=O)NCc1ccco1)N(C(=O)CNS(=O)(=O)c1ccc(Cl)cc1)C1CCCC1 (configuration not stated) | inactive: -29.7% | –
21 | CCOC(=O)n1c(=O)n(C)c2ccc(Br)cc21 | inactive: -26.9% | –
22 | Cc1ccc(NC(=O)c2cc(S(=O)(=O)N(C)C)ccc2N2CCCC2)cc1S(=O)(=O)N(C)C | – | inconclusive [inhibitor, partial curve]
23 | O=C(Cc1ccccc1)NCCCN1CCN(CCCNC(=O)Cc2ccccc2)CC1 | – | inconclusive [inhibitor, single point]
24 | Cc1cccc(NS(=O)(=O)c2cccc(C(=O)N3CCCC(C(F)(F)F)C3)c2)c1 (configuration not stated) | – | inconclusive [inhibitor, partial curve]

Row | Structure (SMILES) | activity change, negative = growth inhibition | Potency
25 | CCOC(=O)C1=CCC(c2ccccc2C)N(S(=O)(=O)c2ccc(C)cc2)C1 (configuration not stated) | – | active: 10.3 µM
26 | COc1cccc(CNC(=S)Nc2cc(OC)ccc2OC)c1 | inactive: -7.2% | –
27 | COc1cccc(C(O)c2nc(-c3cccc4cccnc34)cs2)c1 (configuration not stated) | – | inconclusive [inhibitor, single point]
28 | COc1cccc(CNC(=O)CSc2nnc3c(n2)[nH]c2ccc(C)cc23)c1 | inactive: -18.5% | –
29 | COc1ccc(NC(=O)CN(C)C(=O)CSc2ccc(Br)cc2)cc1 | inactive: -25.6% | –
30 | COc1ccc2c3c(ccc2c1)C(=O)/C(=C/O)CC3 | – | inconclusive [inhibitor, single point]
31 | COc1cccc(-c2cn3nc4c(nc3n2)CCCC4)c1 | inactive: -35.3% | –
32 | COc1ccc(-c2noc(CCC(=O)N3CCN(c4cc(C)ccc4C)CC3)n2)cc1 | – | inconclusive [inhibitor, partial curve]
33 | CCOC(=O)[C@]12CCC=C1N(Cc1cccc3ccccc13)C(=O)[C@H](CC(=O)NCc1ccc(OC)c(OC)c1)C2 | – | inconclusive [inhibitor, single point]
34 | CCc1cnc2c(c1SCC(=O)c1ccccc1)c(=O)n(C)c(=O)n2C | – | inconclusive [inhibitor, single point]
35 | Cc1sc(NC(=O)c2ccco2)c(C(c2ccccc2)N2CCC(C)CC2)c1C (configuration not stated) | – | active: 10.3 µM
36 | CC12CCC(C(=O)NCCCN3CCOCC3)(C(Br)C1=O)C2(C)C (configuration not stated) | inactive: 17.8% | –
37 | CCN(Cc1ccccc1)N=Nc1ccccc1 | inactive: -15.6% | –
38 | O=C(CNCc1ccccn1)N1CCc2ccccc2C1 | inactive: 0.794% | –
39 | CCc1nn(CC(=O)NCCC2=CCCCC2)c(=O)c2cc3cc(F)ccc3n12 | inactive: -5.99% | –
40 | CCCCC(=O)N(c1ccc2oc(C)c(C(C)=O)c2c1)S(=O)(=O)c1ccc(F)cc1C | – | active: 14.6 µM
41 | Cc1cc(C(=O)NCc2cccc(Cl)c2)c2ccccc2n1 | inactive: -23.4% | –
42 | COc1ccc(-c2cn3c(C)c(C(=O)NC(C)(C)C)sc3n2)cc1 | – | inconclusive [inhibitor, single point]
43 | C/C=C/C(=O)N1CC2(CC(c3cccc(NC(=O)COc4ccc(Cl)cc4)c3)=NO2)C[C@@H]1C(N)=O (some centres not stated) | – | inconclusive [inhibitor, single point]
44 | COc1ccc(OCc2nc3ccccc3n2Cc2ccccc2Cl)cc1 | – | inconclusive [inhibitor, single point]
45 | N#CC1(NC(=O)COc2cccnc2[N+](=O)[O-])CCCCC1 | inactive: -2.53% | –
46 | O=C(Nc1ccccc1)C(c1ccccc1)c1ccccc1 | inactive: -2.49% | –
47 | Cc1nc2nc(-c3cccs3)[nH]c2cc1Br | – | inconclusive [inhibitor, single point]
48 | CCOc1ccccc1-n1c(SCC(=O)NC2CCCC2)nnc1-c1ccoc1C | – | inconclusive [inhibitor, single point]

Row | Structure (SMILES) | activity change, negative = growth inhibition | Potency
49 | COc1cc(Cn2nnc3ccccc32)cc(Br)c1O | inactive: 6.42% | –
50 | COc1ccc(-c2nnc(SCC(=O)c3[nH]c(C)c(C(C)=O)c3C)o2)cc1 | – | active: 13 µM
51 | CS(=O)(=O)c1ccc2nc(NC(=O)CCNC(=O)c3ccccc3Cl)sc2c1 | – | inconclusive [inhibitor, single point]
52 | NS(=O)(=O)c1ccc(CNC(=O)c2ccc(Cl)c([N+](=O)[O-])c2)cc1 | – | inconclusive [inhibitor, single point]
53 | CCOc1ccc(N(C)S(=O)(=O)c2ccc3[nH]cc(C(=O)NCCOC)c(=O)c3c2)cc1 | – | active: 13 µM
54 | CN(C)S(=O)(=O)c1cccc(NC(=O)COC(=O)/C=C/c2ccc([N+](=O)[O-])cc2)c1 | – | inconclusive [inhibitor, single point]
55 | COc1cccc(NS(=O)(=O)c2ccc(S(=O)(=O)N3CCOCC3)cc2)c1 | – | inconclusive [inhibitor, single point]
56 | CCN1C(=NCc2cccc(Cl)c2)N[C@@H](c2cccc(F)c2)C(C(=O)OC)=C1C | – | inconclusive [inhibitor, single point]
57 | CC(c1ccccc1)N(C)C(=O)CN1CCN(S(=O)(=O)c2ccc3c(c2)OCCCO3)CC1 (configuration not stated) | – | inconclusive [inhibitor, single point]
58 | Cc1csc(NC(=O)c2cc(-c3ccccc3)nc3ccccc23)n1 | – | inconclusive [inhibitor, single point]
59 | CCCNC(=S)NNC(=O)c1cc(C2CC2)nc2ccccc12 | – | inconclusive [inhibitor, single point]
60 | Cc1nc(NC(=O)c2cccnc2Cl)sc1C | inactive: -1.53% | –
61 | Cc1ccc(S(=O)(=O)CC(=O)c2ccc([N+](=O)[O-])cc2)cc1 | – | inconclusive [inhibitor, single point]
62 | Cc1c(C(=O)NCc2cccc(Cl)c2)sc2nc3n(c(=O)c12)CCC3 | – | inconclusive [inhibitor, single point]
63 | O=C1ON=C(c2ccc(Cl)c([N+](=O)[O-])c2)/C1=C/c1cccc([N+](=O)[O-])c1O | inactive: -0.899% | –
64 | CN(C(=S)NC(=O)C12CC3CC(CC(C3)C1)C2)c1ccc(O)cc1 | – | active: 5.8 µM
65 | CCN(CC(=O)NCc1cccs1)C(=O)/C=C/c1cccc(Cl)c1Cl | inactive: 0.118% | –
66 | C=C1C(=O)O[C@H]2C[C@H]1[C@@H](OC(C)=O)C/C(C)=C/CC/C(C)=C\CC[C@]2(C)O | – | active: 2.59 µM
67 | C=C(C)COc1ccc(-c2nc(N)ncc2-c2ccc(OC)c(OC)c2)c(O)c1 | – | inconclusive [inhibitor, single point]
68 | CC(C)(C)OC(=O)N1CCC(c2c(C(=O)O)cnn2-c2ccccc2Cl)CC1 | inactive: -9.99% | –
69 | CCN(CC)CCn1c(NCc2ccco2)nc2ccccc21 | inactive: -17% | –
70 | c1ccc2c(c1)C1=NCCN1c1ccccc1-2 | – | active: 2.91 µM
71 | CN(C)c1ccc(/C=C2\NC(=S)N(Cc3ccccc3)C2=O)cc1 | – | inconclusive [inhibitor, partial curve, poor fit]
72 | Cc1cccc(NC(=O)c2ccc(S(=O)(=O)NCc3ccco3)cc2)n1 | – | inconclusive [inhibitor, partial curve]
